# Measurements as given in the RNAGym collection of RNA variant scans (doi:10.7554/elife.90254).
# The source gives no read counts; variants with many changes may rest on few reads.
# B1: LINE1-mini (parent)
# chain: GGCAGAGCUCAACACAGCGUGGCAAAGUGGCUGUGGCUAGACUGCC
# Variants of: B1
# Test: self-cleavage, relative activity (ratio to wild type); higher = more cleavage; in vitro, sequencing; the parent is a self-cleaving ribozyme
row,Variant,self-cleavage
1,C3G G21C C23A,0.23
2,C3G G5U C45G,0.34
3,C3U A11G C15G G17A G21A A26G U34C G40U,0
4,C3U A6G G7A G21U C42A,0.24
5,C3U A6C G7C A12U G33U A41U U43G,0.13
6,C3U A14C G29C,0.03
7,C3G G5C G7A C37A,0.59
8,C3G G33U U34C G40A C42G,0.15
9,C3G G5U A26C,0.07
10,C3G C15U G27C C31U,0.53
11,C3G U20A A24C A25C,0.09
12,C3U A25U G44U,0.1
13,C3G C23U A24U A26G C37A,0.02
14,C3G C10U G29U U38C C46A,0.17
15,C3G G21U C31U G36C C37A,0.01
16,C3U C8A C10U,0.07
17,C3U A4U C18A G29C C31A G33U U43A G44A,0.02
18,C3G G29U G30A,0.15
19,C3G G17C A41G C45A,0.04
20,C3G C8A A24U U34C,0.09
21,C3G G22C G40U C46G,0.13
22,C3G U9G G17C,0.18
23,C3U A11U G19U U20A,0.04
24,C3U C18G G19U U28A,0

row,Variant,self-cleavage
1,C3U C8A C18G G30C C46A,0.17
2,C3U A4U U28G,0.26
3,C3G A16C A39U,0.21
4,C3U A6C G17A A26U C31U,0.27
5,C3U C15G G40U C42A,0.06
6,C3U A4G C42U,0.09
7,C3G A14U C18A,0.03
8,C3U G5C C37A G44C,0.28
9,C3G C10A C15A G17C U20A G29C,0.02
10,C3U A11G C18A G22C U32G,0.01
11,C3G G19C C31G,0.12
12,C3U A12U G35A,0.27
13,C3G G7A U9C A14C G21U G33A U34A C37G,0.03
14,C3U C18U G33U C42A,0.06
15,C3G A14G G27U G44A,0.31
16,C3G U20C G40A,0.19
17,C3G U9G G21A,1.36
18,C3U C37A C45A,0.12
19,C3U A25G G29U,0.44
20,C3U C10U G19A G21A G40U,0.1
21,C3G C15U U28C C42U,0.28
22,C3G C10G A14U A24C G30A,0.01
23,C3G C23U U43A,0.16
24,C3G G17C G30U,0.01

row,Variant,self-cleavage
1,C3U A11C A12C G21U G30U G35U C37U C45A,0
2,C3U C13G G19C,0.04
3,C3G G19C U20C C23U,0.15
4,C3U C8U G29A,0.9
5,C3U A4U A14G G30A,0.06
6,C3U A6G G7A U32G U34C,0.4
7,C3G G7A C15G,0.31
8,C3G G5U C42A C45U,0.2
9,C3U C31A U34G A39U,0
10,C3U A26U A39G G40A U43G G44A,0.01
11,C3U C8U A16G,0.09
12,C3U A14U G29A,0.16
13,C3U A4U C18U C23A,0.06
14,C3G G33A U43A,0.04
15,C3G C13A U28C G29C C42A,0.13
16,C3U C8A C10G G33C G40U U43A,0.04
17,C3U C8U A26U U38G,0
18,C3G U28A C42U,0.12
19,C3U C10U G19U U28C G33A C42G,0.02
20,C3U A4G G5A A6G C37U,0.06
21,C3G G5C C8U G19U G40U C42U,0.03
22,C3U A14G C18G,0.02
23,C3U C15U C23A U43A,0.13
24,C3U C8A C13G U34C,0.41

row,Variant,self-cleavage
1,C3U A14G G21U U38A U43A,0.12
2,C3U A12G C23G,0.03
3,C3G G30A G40C G44A,0.14
4,C3U C15A C42A,0.11
5,C3G C8U A12C G17U G22A G30U G35C,0.02
6,C3G C18U U32C G33U U38C C45G,0.09
7,C3U A12C G29U G30C C31G G36U,0.1
8,C3U A6C A25C G33C G40A,0.08
9,C3G G33A A41C,0.18
10,C3U C10U G27U,0.12
11,C3G U9G G22A U38G,0.16
12,C3U C13U A25G G44U,0.08
13,C3U C8U G21U U32C,0.39
14,C3U A4C C8A U32A U34C G44U,0.06
15,C3U A4G A6U G30A,1.34
16,C3G C8U G27C G40A,0.06
17,C3G G5A C13G U28C C31U A39C,0.06
18,C3G C18G U20A G27C,0.1
19,C3U C31U G40U G44U C45G,0.05
20,C3U A4C A24C C46U,0.06
21,C3U A16C G35A,0.01
22,C3G C10A G17U C18A,0.01
23,C3U C13U G22A,0.17
24,C3G C10U C18A A41U,0.02

row,Variant,self-cleavage
1,C3G C13A G27U G33C,0.09
2,C3U C15U U20G G22C A26C C31G,0.07
3,C3U A26G G35C,0.04
4,C3U C23A G27A G44U,0.36
5,C3U G5C C18A G29C A39C,0.09
6,C3G A16G A24G A25U G35C U43C,0.05
7,C3U A26G U38G A41G,0.01
8,C3G C18U G40U A41G,0.03
9,C3U A4U A6G C13U G33A,0.03
10,C3U C15U G17A U38A C42A,0.16
11,C3G G40C G44U,0.07
12,C3G G17A A26C G33C,0.07
13,C3G U9C A11C U20C G33C,0.02
14,C3U A14G G27A,0.69
15,C3U C10A G30U G33U G44A,0.02
16,C3U C10G G30C C31G,0
17,C3U A4G C10U,0.04
18,C3U C13A C23U U43A G44U,0.06
19,C3U A14C A25U U38C,0.08
20,C3U C10G A16C G22C G36C A39G,0.01
21,C3U C15G C18U G27C,0.02
22,C3G G5U C23U G30U,0.29
23,C3G G5C C15G,0.05
24,C3G U20A A39U C42A,0.08

row,Variant,self-cleavage
1,C3G A25U A26G U34G U38A C46A,0.09
2,C3U C10A A14G A26G A39U,0.01
3,C3U A24C G30C,0.58
4,C3U C8U C13A,1.23
5,C3U C23G U34G C42G,0.01
6,C3G U9C C15G A16C C18A U38G,0.02
7,C3G C8U C23G A24U,0.35
8,C3U A24G G30A C31A,0.08
9,C3U C10U G33U,0.05
10,C3U C8A A25C U38C C46U,0.46
11,C3G G19A G36A,0.21
12,C3U C10G C18U G21A C31U A39G,0.01
13,C3G G5C G7C A16U A25C C31G G44C,0
14,C3U C15G A41U U43A,0.05
15,C3G C10A A11U A24U C31A,0.02
16,C3U A26C A39C U43A,0.1
17,C3G U38G G40A C46A,0.03
18,C3U C23U A24C U32G G36U,0.08
19,C3G G7U U9G C46U,0.61
20,C3G G17C G35U,0.15
21,C3G C31A C42U,0.14
22,C3G C13U G19C G30A,0.11
23,C3G C15A G27U C42A,0.07
24,C3U C10A G36U,0.03

row,Variant,self-cleavage
1,C3G A14G C42A,0.09
2,C3G G5A C8A G22A C46G,0.12
3,C3G C8G G17A,0.24
4,C3U C10A G33A,0.05
5,C3G C18A G22A U43C,0
6,C3G G17U U20G C37U,0.02
7,C3G G7U A12U C18A G33A,0.08
8,C3G C8G G22U A25U,1.02
9,C3G G17U A26C,0.05
10,C3U C10A A24C U28C,0.01
11,C3G C8U C13G G21A G33U,0.66
12,C3U C8A A12G G22U U32G,0.19
13,C3G C8A C31U,0.48
14,C3G G5A G27A U32G A41C,0.03
15,C3G G17A G21U G27A,0.09
16,C3U C18U G30U U38C G44C,0.04
17,C3U C10A G22A A26G U28A,0.02
18,C3G C13A G17C G27A,0.41
19,C3U C8G U28G G36A,0.24
20,C3G A16U C46A,0.1
21,C3G C10U G44C,0.13
22,C3U A12U G21U,0.01
23,C3U A12G G19A U28C G29A,0.02
